21 sequences from PMC5892938 can be followed below.

The other results are listed elsewhere or left out. At the low end of the ranking, values are background and their order means little.

In the test the target is GST-SBP-SLBP (stem-loop binding protein) (UniProt Q14493). In words: targeted RNA Bind-n-Seq.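 Further: DESeq read counts versus GST-SBP nonspecific binding control pulldown.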 Particulars: RBNS binding buffer: 25 mM Tris pH 7.5, 150 mM KCl, 3 mM MgCl2, 0.1% Tween, 0.5 mg/mL BSA, 1 mM DTT; 27 nM protein, 750 pM RNA pool; temperature not stated; high values mean tight binding.
On to “GGUCACGUCUCAAUCAACUCUUCUUCCAGGGAAAGCCCUGGCUAACUCAACAGCUCGCAGUCAAG”, for which the binding signal (log2 fold change) came out at 0.193.
In the case of “GGUCACGUCUCAAUCAACUCAACUUCCAGGGAAAGCCCUGGUAAUCUCAACAGCUCGCAGUCAAG” it was 0.208; in that of “GGUCACGUCUCAAUCAACUCUUUUUCCAGGGAAACCCCUGGCAGUCUCAACAGCUCGCAGUCAAG”, 0.0257; in that of “GGUCACGUCUCAAUCAACUCUUCGCCAGGAGUUUACUCCUGUAUAUUCAACAGCUCGCAGUCAAG”, -0.0239.
In the case of “GGUCACGUCUCAAUCAACUCAGUCUCAGGAGUUUCCUCCUGCAUUUUCAACAGCUCGCAGUCAAG” it was 0.0195.
As to “GGUCACGUCUCAAUCAACUCUUCCCCAGGAGUUUUCUCCUGUUUAUUCAACAGCUCGCAGUCAAG”, the binding signal (log2 fold change) was found to be 0.0761.
In the case of “GGUCACGUCUCAAUCAACUCAAUUCCAGGAGUUUUCUCCUGCUUAUUCAACAGCUCGCAGUCAAG” it was 5.68e-05.
In the case of “GGUCACGUCUCAAUCAACUCAAUCCCCAGGGAAAUCCCUGGUAAAUUCAACAGCUCGCAGUCAAG” it was 0.453; in that of “GGUCACGUCUCAAUCAACUCAAUAGAGGGGGGGAAAACCCCUUUACCCUCACCGUCAACAGCUCGCAGUCAAG”, -0.0739; in that of “GGUCACGUCUCAAUCAACUCUUUUUCCAGGGAAACCCCUGGCUUUUUCAACAGCUCGCAGUCAAG”, -0.29.
Then “GGUCACGUCUCAAUCAACUCUCCGGAGGGGGGGAAAACCCCUUUACCCUCAUAUUCAACAGCUCGCAGUCAAG”, with 0.03; and “GGUCACGUCUCAAUCAACUCAAUCCCCAGGGAAAGCCCUGGCAUUCUCAACAGCUCGCAGUCAAG”, with -0.00141.
As to “GGUCACGUCUCAAUCAACUCAUUCUCAGGAGUUUCCUCCUGUAUACUCAACAGCUCGCAGUCAAG”, the binding signal (log2 fold change) was -0.0228.
Then “GGUCACGUCUCAAUCAACUCUAUUUCCAGGGAAACCCCUGGCUAAUUCAACAGCUCGCAGUCAAG”, with 0.0719.
In the case of “GGUCACGUCUCAAUCAACUCAACUUCCAGGGAAAGCCCUGGCAUACUCAACAGCUCGCAGUCAAG” it was -0.193; in that of “GGUCACGUCUCAAUCAACUCUACUCCAGGAGUUUUCUCCUGCUUACUCAACAGCUCGCAGUCAAG”, -0.102.
Then “GGUCACGUCUCAAUCAACUCCCACGAGGGGGGGAAAACCCCUUUACCCUCCAUAUCAACAGCUCGCAGUCAAG”, with 0.134; and “GGUCACGUCUCAAUCAACUCAUUUCCCAGGGAAACCCCUGGCAUAUUCAACAGCUCGCAGUCAAG”, with 0.236.
“GGUCACGUCUCAAUCAACUCCAACGAGGGGGGGAAAACCCCUUUACCCUCAAAAUCAACAGCUCGCAGUCAAG”: the binding signal (log2 fold change) was -0.12.
In the case of “GGUCACGUCUCAAUCAACUCUUUCUCCAGGGAAAACCCUGGCAAAUUCAACAGCUCGCAGUCAAG” it was 0.163; in that of “GGUCACGUCUCAAUCAACUCUACUUCCAGGGAAAUCCCUGGCUAUCUCAACAGCUCGCAGUCAAG”, 0.17.
